Here are results for 28 molecules from US20260184782A1 (TWIST BIOSCIENCE, published 2026).

Numbering of substitutions follows the chain as printed.

T1: TIGIT (UniProt Q495A1 22-141, limits assumed)
T1 construct: also called T cell immunoreceptor with Ig and ITIM domains; hTIGIT
T1 sequence (looked up): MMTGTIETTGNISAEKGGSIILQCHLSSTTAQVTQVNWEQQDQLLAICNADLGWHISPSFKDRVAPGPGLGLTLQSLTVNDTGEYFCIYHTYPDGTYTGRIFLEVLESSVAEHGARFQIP

B1: TIGIT-31-35 (VHH-Fc) (Fc fusion)
chain: EVQLVESGGGLVQPGGSLRLSCAASGFTFSTSWMGWFRQAPGKERELVASITSGGTTNYADSVKGRFTISADNSKNTAYLQMNSLKPEDTAVYYCAADVWYGSTWRNWGQGTLVTVSSGGGGS[in this place human IgG1 Fc with C220S (EU numbers)]
B2: TIGIT-31-18 (VHH-Fc) (Fc fusion)
chain: B1 chain with T31G, S32N, L47F, T52S, G55S, T56A, T57I
B3: TIGIT-31-47 (VHH-Fc) (Fc fusion)
chain: B1 chain with T31G, S32N, L47W, A49V, S50G, T52S, T57P, N58H
B4: TIGIT-31-38 (VHH-Fc) (Fc fusion)
chain: B1 chain with S30D, T31R, T56S, N58S
B5: TIGIT-31-45 (VHH-Fc) (Fc fusion)
chain: B1 chain with T31G, S32N, L47F, S50G, I51V, T52N, G54N, T56Y, T57I
B6: TIGIT-31-44 (VHH-Fc) (Fc fusion)
chain: B1 chain with T31G, S32N, L47W, T52S
B7: TIGIT-31-46 (VHH-Fc) (Fc fusion)
chain: B1 chain with S30D, T31R, N58S
B8: TIGIT-31-48 (VHH-Fc) (Fc fusion)
chain: B1 chain with F29L, T31S, S32N, S50G, I51V, T52N, G54N, T56Y, T57I
B9: TIGIT-31-11 (VHH-Fc) (Fc fusion)
chain: B1 chain with L47F, T52S, S53T, G54S, T56N, N58F
B10: TIGIT-31-01 (VHH-Fc) (Fc fusion)
chain: B1 chain with S30D, T31R, L47V, T56S, N58Y
notes: also called TIGIT-31-1; 31-1
B11: TIGIT-31-13 (VHH-Fc) (Fc fusion)
chain: B1 chain with S30D, T31R, L47W
B12: TIGIT-31-50 (VHH-Fc) (Fc fusion)
chain: B1 chain with F29M, T31S, L47F, A49G, S50G, T52S, T56S, N58Y
B13: TIGIT-31-31 (VHH-Fc) (Fc fusion)
chain: B1 chain with F29L, T31G, S32N, L47F, T52S, T56G
B14: TIGIT-31-54 (VHH-Fc) (Fc fusion)
chain: B1 chain with S50A, I51V, T56N
B15: TIGIT-31-20 (VHH-Fc) (Fc fusion)
chain: B1 chain with T31G, S32N, L47F, S50G, T52L, G54D, T56R, T57E, N58L
B16: TIGIT-31-33 (VHH-Fc) (Fc fusion)
chain: B1 chain with T56S
B17: TIGIT-31-39 (VHH-Fc) (Fc fusion)
chain: B1 chain with S50G, I51V, T52N, G54N, T56Y, T57I
B18: TIGIT-31-36 (VHH-Fc) (Fc fusion)
chain: B1 chain with S30D, T31R, I51V
B19: TIGIT-31-16 (VHH-Fc) (Fc fusion)
chain: B1 chain with A49V, I51V, T56Y
B20: TIGIT-31-17 (VHH-Fc) (Fc fusion)
chain: B1 chain with F29M, T31S, L47W, T52N, T57R
B21: TIGIT-31-52 (VHH-Fc) (Fc fusion)
chain: B1 chain with S30D, T31R, L47F, S50G, G54S, T56I, T57P
B22: TIGIT-31-42 (VHH-Fc) (Fc fusion)
chain: B1 chain with S32H, L47F, T52G, G54S, N58R
B23: TIGIT-30-58 (VHH-Fc) (Fc fusion)
chain: EVQLVESGGGLVQAGGSLRLSCAASGFAFGDSWMGWFRQAPGKEREWVSGISSGGGRTYYADSVKGRFTISADNAKNTVYLQMNSLKPEDTAVYYCAADVWYGSTWRNWGQGTQVTVSSGGGGS[in this place human IgG1 Fc with C220S (EU numbers)]
B24: TIGIT-30-57 (VHH-Fc) (Fc fusion)
chain: EVQLVESGGGLVQAGGSLRLSCAASGPTFSIYDMGWFRQAPGKEREFVAAITWNSGRIGYADSVKGRFTISADNAKNTVYLQMNSLKPEDTAVYYCAAGVWSSLRHTAANWGQGTQVTVSSGGGGS[in this place human IgG1 Fc with C220S (EU numbers)]
B25: TIGIT-30-56 (VHH-Fc) (Fc fusion)
chain: EVQLVESGGGLVQAGGSLRLSCAASGLTISTYPMGWFRQAPGKEREFVAAVNWSGRRELYADSVKGRFTISADNAKNTVYLQMNSLKPEDTAVYYCAAFREYHWGQGTQVTVSSGGGGS[in this place human IgG1 Fc with C220S (EU numbers)]
B26: TIGIT-31-02 (VHH-Fc) (Fc fusion)
chain: EVQLVESGGGLVQPGGSLRLSCAASGRTFGDYIMGWFRQAPGKERELVAEITRSGRTNYADSVKGRFTISADNSKNTAYLQMNSLKPEDTAVYYCAAVFSRGPLTWGQGTLVTVSSGGGGS[in this place human IgG1 Fc with C220S (EU numbers)]
B27: TIGIT-31-55 (VHH-Fc) (Fc fusion)
chain: B26 chain with S54V, R56N
B28: TIGIT-30-55 (VHH-Fc) (Fc fusion)
chain: EVQLVESGGGLVQAGGSLRLSCAASGNTFSGGFMGWFRQAPGKEREWVASVLRGGYTWYADSVKGRFTISADNAKNTVYLQMNSLKPEDTAVYYCATGWQSTTKSQGWGQGTQVTVSSGGGGS[in this place human IgG1 Fc with C220S (EU numbers)]

For the first assay, the target named is T1, TIGIT. In words: SPR (Carterra), VHH-Fc.
As to B1, the Kd – broadly, a measure of binding affinity in units of concentration – worked out at 66 nM; the off-rate constant (koff) (commonly the rate constant with which the complex falls apart) is 0.032 s⁻¹; the kon – broadly, the rate constant with which the complex forms – amounted to 480000 M⁻¹ s⁻¹.

Molecule B2 had a Kd of 99 nM, a koff of 0.54 s⁻¹ and an on-rate (kon) of 5.4e+06 M⁻¹ s⁻¹.

Molecule B3 came in with a dissociation constant (Kd) of 53 nM, a koff of 0.0059 s⁻¹ and a kon of 110000 M⁻¹ s⁻¹.

Turning to B4, the Kd was 172 nM, the off-rate (koff) came to 0.062 s⁻¹ and the kon was found to be 360000 M⁻¹ s⁻¹.

In turn, B5 showed a dissociation constant (Kd) of 193 nM, a koff of 0.03 s⁻¹ and a kon of 150000 M⁻¹ s⁻¹.

The molecule B6 yielded a Kd of 140 nM, a koff of 0.049 s⁻¹ and a kon of 350000 M⁻¹ s⁻¹.

Regarding B7, binding was characterised by a dissociation constant (Kd) of 132 nM, the koff turned out to be 0.027 s⁻¹ and the kon came to 210000 M⁻¹ s⁻¹.

For the molecule B8, the affinity, expressed as Kd, was 175 nM; the koff is 19 s⁻¹; the kon worked out at 1.1e+08 M⁻¹ s⁻¹.

Molecule B9 registered a Kd of 118 nM, a koff of 0.042 s⁻¹ and a kon of 360000 M⁻¹ s⁻¹.

For the molecule B10, the Kd worked out at 12 nM, the koff was determined as 0.0035 s⁻¹ and the kon was 280000 M⁻¹ s⁻¹.

Consider B11, for which the equilibrium dissociation constant (Kd) was found to be 409 nM, the dissociation rate constant (koff) is 0.033 s⁻¹ and the kon was 80000 M⁻¹ s⁻¹.

Consider B12, for which binding was characterised by a dissociation constant (Kd) of 551 nM, the koff was found to be 0.036 s⁻¹ and the kon was determined as 66000 M⁻¹ s⁻¹.

For B13, binding was put at a Kd of 104 nM, the koff worked out at 0.054 s⁻¹ and the kon came out at 520000 M⁻¹ s⁻¹.

Molecule B14 showed a Kd of 107 nM, a koff of 0.018 s⁻¹ and a kon of 170000 M⁻¹ s⁻¹.

The molecule B15 returned a Kd of 74 nM, a koff of 0.0092 s⁻¹ and a kon of 120000 M⁻¹ s⁻¹.

On to B16, for which the Kd came to 96 nM, the koff is 0.051 s⁻¹ and the kon came to 530000 M⁻¹ s⁻¹.

On to B17, for which the Kd was 78 nM, the koff was found to be 0.0082 s⁻¹ and the on-rate (kon) was 100000 M⁻¹ s⁻¹.

Take B18: the Kd was 102 nM, the koff was found to be 0.041 s⁻¹ and the on-rate constant (kon) came to 410000 M⁻¹ s⁻¹.

Take B19: binding was characterised by a dissociation constant (Kd) of 151 nM, the koff stood at 0.037 s⁻¹ and the kon stood at 240000 M⁻¹ s⁻¹.

As to B20, the equilibrium dissociation constant (Kd) was 166 nM, the dissociation rate constant (koff) was 0.025 s⁻¹ and the kon was determined as 150000 M⁻¹ s⁻¹.

With B21, the Kd is 308 nM, the koff stood at 260 s⁻¹ and the kon was 8.4e+08 M⁻¹ s⁻¹.

The molecule B22 yielded a Kd of 371 nM, a koff of 240 s⁻¹ and a kon of 6.5e+08 M⁻¹ s⁻¹.

B23 returned a Kd of 1050 nM, a koff of 18 s⁻¹ and a kon of 1.7e+07 M⁻¹ s⁻¹.

For B24, binding was characterised by a dissociation constant (Kd) of 95 nM and the koff was determined as 95 s⁻¹.

With B25, the affinity, expressed as Kd, was 214 nM; the koff stood at 160 s⁻¹; the kon came out at 7.5e+08 M⁻¹ s⁻¹.

Molecule B26 came in with a dissociation constant (Kd) of 216 nM, a koff of 0.054 s⁻¹ and an on-rate (kon) of 250000 M⁻¹ s⁻¹.

In the case of B27, the equilibrium dissociation constant (Kd) came to 154 nM, the koff worked out at 0.033 s⁻¹ and the kon was found to be 210000 M⁻¹ s⁻¹.

B28 had a dissociation constant (Kd) of 85 nM, a koff of 0.003 s⁻¹ and an on-rate (kon) of 35000 M⁻¹ s⁻¹.

In another assay the target is T1, TIGIT. In words: ELISA. In general terms: In an ELISA, binding on a coated surface is turned into a signal by an enzyme label.
For B1, the ELISA is 5.7.

Molecule B2 yielded an ELISA of 4.1.

In turn, B3 gave an ELISA of 8.8.

On to B4, for which the ELISA is 4.8.

B5 had an ELISA of 8.6.

Consider B6, for which the ELISA is 9.2.

B7 showed an ELISA of 7.6.

Turning to B8, the ELISA turned out to be 3.3.

In turn, B9 showed an ELISA of 4.5.

The molecule B10 yielded an ELISA of 5.7.

B11 gave an ELISA of 7.3.

Molecule B12 yielded an ELISA of 6.7.

B13 gave an ELISA of 6.7.

Molecule B14 registered an ELISA of 9.

As for B15, the ELISA is 6.6.

For B16, the ELISA amounted to 6.

In the case of B17, the ELISA came out at 9.9.

Consider B18, for which the ELISA is 5.6.

The molecule B19 returned an ELISA of 9.2.

As to B20, the ELISA was 8.7.

Turning to B21, the ELISA worked out at 6.5.

B22 had an ELISA of 9.6.

In turn, B23 returned an ELISA of 3.3.

The molecule B24 showed an ELISA of 5.2.

Regarding B25, the ELISA worked out at 4.6.

B26 displayed an ELISA of 8.4.

B27 gave an ELISA of 7.9.

Molecule B28 displayed an ELISA of 6.
